In publication PMC7048933:
Results are given in words; binding and its absence hold for the method and conditions named. Binding seen in cells or lysates may run through a third protein. Some results given as binding are weak or reduced against the parent protein; the word gives no strength. For some assays here: Sequences can lack the tags named with a protein.

The chains behind the UniProt entries cited, without tags or fusion partners.
UniProt Q92793: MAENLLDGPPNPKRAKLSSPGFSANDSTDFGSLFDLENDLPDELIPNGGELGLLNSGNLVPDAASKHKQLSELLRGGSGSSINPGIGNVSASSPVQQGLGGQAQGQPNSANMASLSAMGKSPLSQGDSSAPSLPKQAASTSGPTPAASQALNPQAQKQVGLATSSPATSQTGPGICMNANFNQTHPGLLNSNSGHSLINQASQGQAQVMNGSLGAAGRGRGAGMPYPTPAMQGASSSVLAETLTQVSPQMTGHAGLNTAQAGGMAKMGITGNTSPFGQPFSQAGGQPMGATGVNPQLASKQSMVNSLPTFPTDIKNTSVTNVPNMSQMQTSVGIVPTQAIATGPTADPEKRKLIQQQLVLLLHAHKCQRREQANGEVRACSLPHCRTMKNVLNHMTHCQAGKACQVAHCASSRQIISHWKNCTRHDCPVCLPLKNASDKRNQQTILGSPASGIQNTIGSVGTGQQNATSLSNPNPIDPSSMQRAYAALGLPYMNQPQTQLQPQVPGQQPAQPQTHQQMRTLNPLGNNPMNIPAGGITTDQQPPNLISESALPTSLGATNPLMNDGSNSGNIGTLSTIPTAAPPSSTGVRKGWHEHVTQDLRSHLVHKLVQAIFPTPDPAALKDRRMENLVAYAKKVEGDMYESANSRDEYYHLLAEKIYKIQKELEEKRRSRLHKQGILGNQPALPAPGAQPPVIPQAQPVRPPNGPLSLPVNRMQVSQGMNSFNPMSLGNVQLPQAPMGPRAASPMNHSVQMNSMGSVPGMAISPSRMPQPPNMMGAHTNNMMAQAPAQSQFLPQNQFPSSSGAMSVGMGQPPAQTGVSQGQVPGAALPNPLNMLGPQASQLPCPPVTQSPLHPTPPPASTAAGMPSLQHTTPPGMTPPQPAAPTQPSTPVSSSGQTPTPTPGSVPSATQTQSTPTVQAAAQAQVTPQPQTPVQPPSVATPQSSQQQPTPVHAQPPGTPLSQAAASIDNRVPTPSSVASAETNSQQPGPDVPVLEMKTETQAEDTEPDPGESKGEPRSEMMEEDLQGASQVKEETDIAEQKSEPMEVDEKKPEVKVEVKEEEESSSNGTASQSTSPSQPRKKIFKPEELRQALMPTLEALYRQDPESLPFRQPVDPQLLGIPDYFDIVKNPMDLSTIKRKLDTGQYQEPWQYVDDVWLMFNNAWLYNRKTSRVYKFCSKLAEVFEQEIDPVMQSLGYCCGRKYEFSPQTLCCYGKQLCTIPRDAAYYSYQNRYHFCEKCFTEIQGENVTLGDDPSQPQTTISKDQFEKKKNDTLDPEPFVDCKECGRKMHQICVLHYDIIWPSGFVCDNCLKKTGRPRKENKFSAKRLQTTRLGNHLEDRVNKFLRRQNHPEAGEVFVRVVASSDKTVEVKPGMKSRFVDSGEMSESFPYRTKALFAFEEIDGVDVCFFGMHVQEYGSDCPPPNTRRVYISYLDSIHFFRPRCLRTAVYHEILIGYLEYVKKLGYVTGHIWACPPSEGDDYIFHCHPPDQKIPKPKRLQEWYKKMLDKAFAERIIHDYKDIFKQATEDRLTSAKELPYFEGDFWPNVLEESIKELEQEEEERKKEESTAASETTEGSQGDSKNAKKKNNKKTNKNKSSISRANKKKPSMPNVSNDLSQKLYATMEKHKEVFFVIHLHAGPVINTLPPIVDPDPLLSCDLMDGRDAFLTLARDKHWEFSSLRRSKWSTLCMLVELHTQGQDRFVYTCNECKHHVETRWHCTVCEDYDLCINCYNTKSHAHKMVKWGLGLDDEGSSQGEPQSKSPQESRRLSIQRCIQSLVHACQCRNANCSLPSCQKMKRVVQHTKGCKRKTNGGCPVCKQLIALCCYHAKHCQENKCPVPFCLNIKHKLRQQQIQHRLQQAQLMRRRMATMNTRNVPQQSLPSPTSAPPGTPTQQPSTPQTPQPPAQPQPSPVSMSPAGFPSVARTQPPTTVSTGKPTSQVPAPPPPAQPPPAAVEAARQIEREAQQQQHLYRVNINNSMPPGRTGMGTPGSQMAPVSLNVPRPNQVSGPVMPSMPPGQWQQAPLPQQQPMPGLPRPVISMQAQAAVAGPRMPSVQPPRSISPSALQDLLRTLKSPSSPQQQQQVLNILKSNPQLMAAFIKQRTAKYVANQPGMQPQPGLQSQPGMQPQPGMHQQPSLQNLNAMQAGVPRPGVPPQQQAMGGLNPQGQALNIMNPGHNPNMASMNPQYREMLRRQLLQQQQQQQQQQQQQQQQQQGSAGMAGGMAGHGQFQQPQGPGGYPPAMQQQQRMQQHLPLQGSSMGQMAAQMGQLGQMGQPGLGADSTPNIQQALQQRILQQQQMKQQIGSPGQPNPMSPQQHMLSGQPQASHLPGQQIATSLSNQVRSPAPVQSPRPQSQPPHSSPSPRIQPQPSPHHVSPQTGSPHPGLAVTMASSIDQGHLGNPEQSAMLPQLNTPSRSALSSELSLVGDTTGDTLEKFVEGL
UniProt Q92830: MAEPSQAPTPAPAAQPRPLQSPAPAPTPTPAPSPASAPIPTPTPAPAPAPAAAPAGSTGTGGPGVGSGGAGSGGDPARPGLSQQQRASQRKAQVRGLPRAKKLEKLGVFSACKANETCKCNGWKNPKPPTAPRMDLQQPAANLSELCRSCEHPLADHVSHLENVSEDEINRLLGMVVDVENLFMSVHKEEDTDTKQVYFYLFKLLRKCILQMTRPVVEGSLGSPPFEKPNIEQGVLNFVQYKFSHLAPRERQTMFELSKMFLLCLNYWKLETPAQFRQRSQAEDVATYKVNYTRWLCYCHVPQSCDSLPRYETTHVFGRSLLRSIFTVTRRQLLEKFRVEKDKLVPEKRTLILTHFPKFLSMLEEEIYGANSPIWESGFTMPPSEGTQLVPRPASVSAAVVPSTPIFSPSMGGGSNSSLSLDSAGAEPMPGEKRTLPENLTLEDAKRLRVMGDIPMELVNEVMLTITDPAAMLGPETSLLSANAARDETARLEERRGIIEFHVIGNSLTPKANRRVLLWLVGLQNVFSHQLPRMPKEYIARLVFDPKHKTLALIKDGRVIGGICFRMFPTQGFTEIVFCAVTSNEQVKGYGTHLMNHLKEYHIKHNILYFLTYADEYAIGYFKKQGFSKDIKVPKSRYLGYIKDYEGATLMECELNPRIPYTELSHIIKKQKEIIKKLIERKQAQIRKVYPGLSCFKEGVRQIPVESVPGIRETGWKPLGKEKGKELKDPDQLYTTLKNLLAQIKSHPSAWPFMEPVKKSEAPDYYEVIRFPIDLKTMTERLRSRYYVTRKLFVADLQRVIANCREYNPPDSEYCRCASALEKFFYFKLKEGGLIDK
UniProt Q92831: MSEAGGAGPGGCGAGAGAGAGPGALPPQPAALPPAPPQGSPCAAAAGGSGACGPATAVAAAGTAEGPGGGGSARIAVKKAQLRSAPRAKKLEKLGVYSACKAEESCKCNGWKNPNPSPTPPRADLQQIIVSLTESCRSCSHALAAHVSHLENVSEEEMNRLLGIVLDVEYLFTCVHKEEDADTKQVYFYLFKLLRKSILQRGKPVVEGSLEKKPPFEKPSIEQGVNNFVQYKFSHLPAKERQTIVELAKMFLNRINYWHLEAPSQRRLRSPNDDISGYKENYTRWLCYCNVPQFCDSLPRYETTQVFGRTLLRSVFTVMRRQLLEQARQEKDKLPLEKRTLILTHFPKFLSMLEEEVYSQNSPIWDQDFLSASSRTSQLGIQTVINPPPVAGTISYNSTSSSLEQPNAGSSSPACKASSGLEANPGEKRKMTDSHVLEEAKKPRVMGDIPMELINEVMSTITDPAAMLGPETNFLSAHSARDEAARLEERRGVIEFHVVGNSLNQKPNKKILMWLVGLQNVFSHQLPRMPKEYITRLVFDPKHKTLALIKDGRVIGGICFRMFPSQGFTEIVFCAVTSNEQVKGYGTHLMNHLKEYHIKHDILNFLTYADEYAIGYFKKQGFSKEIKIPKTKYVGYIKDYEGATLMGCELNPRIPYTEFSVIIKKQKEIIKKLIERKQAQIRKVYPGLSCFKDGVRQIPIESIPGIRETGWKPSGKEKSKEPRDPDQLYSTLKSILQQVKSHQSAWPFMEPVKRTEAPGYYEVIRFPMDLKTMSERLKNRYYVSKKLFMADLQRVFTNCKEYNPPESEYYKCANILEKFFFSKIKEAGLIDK
UniProt Q92993: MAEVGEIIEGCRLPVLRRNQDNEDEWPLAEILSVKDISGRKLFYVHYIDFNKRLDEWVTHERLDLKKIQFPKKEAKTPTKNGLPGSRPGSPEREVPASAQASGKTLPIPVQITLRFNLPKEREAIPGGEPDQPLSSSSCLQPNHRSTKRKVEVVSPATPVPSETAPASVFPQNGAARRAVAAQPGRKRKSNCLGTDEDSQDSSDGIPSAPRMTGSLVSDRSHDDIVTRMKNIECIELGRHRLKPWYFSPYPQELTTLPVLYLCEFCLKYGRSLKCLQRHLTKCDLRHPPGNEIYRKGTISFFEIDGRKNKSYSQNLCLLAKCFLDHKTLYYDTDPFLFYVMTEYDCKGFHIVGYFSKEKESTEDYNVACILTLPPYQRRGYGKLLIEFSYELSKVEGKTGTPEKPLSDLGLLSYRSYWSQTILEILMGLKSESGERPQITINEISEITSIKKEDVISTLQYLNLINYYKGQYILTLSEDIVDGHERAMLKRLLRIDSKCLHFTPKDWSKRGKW
UniProt Q9UNE7: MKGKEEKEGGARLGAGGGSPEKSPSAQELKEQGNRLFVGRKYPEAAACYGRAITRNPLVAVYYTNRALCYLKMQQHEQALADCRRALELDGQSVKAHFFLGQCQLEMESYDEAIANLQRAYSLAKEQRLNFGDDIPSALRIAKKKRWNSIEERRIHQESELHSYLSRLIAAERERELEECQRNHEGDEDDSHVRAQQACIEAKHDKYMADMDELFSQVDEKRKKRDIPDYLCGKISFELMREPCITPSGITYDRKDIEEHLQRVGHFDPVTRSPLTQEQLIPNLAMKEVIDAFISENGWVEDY
UniProt O15379: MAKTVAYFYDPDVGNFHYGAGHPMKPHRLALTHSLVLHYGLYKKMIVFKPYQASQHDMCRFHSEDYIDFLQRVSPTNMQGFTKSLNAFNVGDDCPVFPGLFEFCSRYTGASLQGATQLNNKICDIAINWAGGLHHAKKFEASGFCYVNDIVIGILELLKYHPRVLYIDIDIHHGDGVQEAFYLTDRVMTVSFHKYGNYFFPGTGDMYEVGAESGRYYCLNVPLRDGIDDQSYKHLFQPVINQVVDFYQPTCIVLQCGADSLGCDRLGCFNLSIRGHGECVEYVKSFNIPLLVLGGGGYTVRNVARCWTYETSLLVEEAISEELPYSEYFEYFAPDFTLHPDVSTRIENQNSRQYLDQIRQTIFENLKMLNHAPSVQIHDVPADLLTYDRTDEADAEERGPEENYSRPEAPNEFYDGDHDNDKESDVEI

molecular target: T1, Flag-tagged CBX4 (chromobox homolog 4), wild type (human) (UniProt O00257); experiment: co-IP; exogenous level: cells (HEK293T where stated) co-transfected with tagged plasmids; lysed in RIPA buffer (150 mM NaCl, 0.5% EDTA, 50 mM Tris, 0.5% NP40); anti-HA-, anti-Myc- or anti-FLAG-agarose, 2 h to overnight at 4 °C; five washes with RIPA; Western blotting; in Fig. 7d with or without pyrvinium pamoate for 24 h (interaction of CBX4 with CHIP increased by the treatment)
T1 sequence: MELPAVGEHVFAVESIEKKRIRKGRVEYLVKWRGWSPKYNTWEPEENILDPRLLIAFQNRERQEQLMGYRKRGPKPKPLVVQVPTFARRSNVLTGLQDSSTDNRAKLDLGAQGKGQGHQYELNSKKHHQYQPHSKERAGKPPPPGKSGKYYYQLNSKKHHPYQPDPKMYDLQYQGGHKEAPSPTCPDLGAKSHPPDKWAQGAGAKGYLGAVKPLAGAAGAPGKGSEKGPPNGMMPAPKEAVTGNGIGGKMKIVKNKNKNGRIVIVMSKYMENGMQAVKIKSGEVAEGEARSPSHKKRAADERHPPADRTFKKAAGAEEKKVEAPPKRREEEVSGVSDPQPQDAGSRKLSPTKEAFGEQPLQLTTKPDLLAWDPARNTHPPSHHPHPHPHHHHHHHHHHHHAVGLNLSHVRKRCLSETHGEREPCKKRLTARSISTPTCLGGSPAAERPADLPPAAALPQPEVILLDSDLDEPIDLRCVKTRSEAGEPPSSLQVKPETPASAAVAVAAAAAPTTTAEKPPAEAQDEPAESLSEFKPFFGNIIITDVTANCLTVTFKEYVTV

Row | Substance | binding
1 | HA-tagged CBP (from UniProt Q92793 1-2442) | binds
2 | HA-tagged GCN5 (from UniProt Q92830 1-837) | binds
3 | HA-tagged P300 (from UniProt Q09472 1-2414) | binds
4 | HA-tagged PCAF (from UniProt Q92831 1-832) | no binding
5 | HA-tagged TIP60 (from UniProt Q92993 1-513) | no binding
6 | Myc-tagged CHIP (carboxyl terminus of HSC70-interacting protein), wild type (from UniProt Q9UNE7 1-303) (enzyme) | binds

molecular target: T2, endogenous CBX4 of U2OS/MTX300 cells (human (endogenous in U2OS/MTX300)) (UniProt O00257); experiment: co-IP; endogenous level: U2OS/MTX300 lysate (RIPA) incubated with anti-CBX4 antibody or anti-IgG antibody 2 h at 4 °C, then protein A/G-agarose 2 h to overnight; five washes with RIPA; Western blotting
T2 sequence: T1 sequence

Row | Substance | binding
7 | endogenous CBP of U2OS/MTX300 cells (from UniProt Q92793 1-2442) | binds
8 | endogenous CHIP of U2OS/MTX300 cells (from UniProt Q9UNE7 1-303) (enzyme) | binds
9 | endogenous GCN5 of U2OS/MTX300 cells (from UniProt Q92830 1-837) | binds
10 | endogenous P300 of U2OS/MTX300 cells (from UniProt Q09472 1-2414) | binds
11 | endogenous PCAF of U2OS/MTX300 cells (from UniProt Q92831 1-832) | no binding
12 | endogenous TIP60 of U2OS/MTX300 cells (from UniProt Q92993 1-513) | no binding

molecular target: T1, Flag-tagged CBX4 (chromobox homolog 4), wild type (human); experiment: co-IP; Supplementary Fig. 10B, C: WT-CBX4, CDM-CBX4 and ΔTM-CBX4 with GCN5 and HDAC3; method, cells and tags not told in the text shown (co-IP is the only binding method of the methods section)

Row | Substance | binding
13 | HA-tagged GCN5 (from UniProt Q92830 1-837) | binds
14 | HDAC3 (from UniProt O15379 1-428) (enzyme) | binds
